These results are taken from the supplement of paper PMC10126150.

For the data set, the system named is ATP. Nature of the data set: switch fluorescence ratio, 500 uM ATP over buffer (Cy3 cluster intensity, sum of 5 cycles each) (fold (ratio)); higher = stronger signal-on switching upon ATP binding; sequences stand for … in TCGTCGGCAGCGTCAGATGTGTATAAGAGACAGTTTTTTTTTTTTTTTTTTTTTTTTT…TC. The note with it: aptamer strand: ATP DNA aptamer (quencher-CACCTGGGGGAGTATTGCGGAGGAAGG + anchor), 100 nM annealed; ATP concentration: 500 uM; one replicate. Put shortly:
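Exposure to 500 uM ATP lasted 15 min at 22 °C before imaging, and a selection-buffer image was taken beforehand, for Cy3-labelled switching-strand clusters on a modified Illumina MiSeq flow-cell annealed to 100 nM quencher-labelled ATP aptamer. Five buffer/ATP cycles were run with NaOH stripping and re-annealing between them. The fluorescence ratio per cluster is summed target-cycle over summed buffer-cycle Cy3 intensity, averaged per switch-domain sequence. Clusters outside 100-1000 RFU were excluded.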

Values marked as one replicate rest on one cluster of the flow cell; about a third of the high ones do not repeat.

As to ATACGGTCCG, the switch fluorescence ratio stood at 1.09.

Consider GCCATCAGAA, for which the switch fluorescence ratio is 0.99.

For TTAGCAACTA, the switch fluorescence ratio was 1.33.

TTAGTTATGG: the switch fluorescence ratio turned out to be 1.08.

As for CACTCCAGAC, the switch fluorescence ratio amounted to 1.53.

Turning to GGGGGTTATC, the switch fluorescence ratio was found to be 1.01.

Take ATTTGATTAA: the switch fluorescence ratio turned out to be 0.974.

AACATAACAA: the switch fluorescence ratio amounted to 1.06.

Turning to GGCATTTACC, the switch fluorescence ratio came out at 1.06.

For the sequence AAATTCACT, the switch fluorescence ratio was determined as 1.04.

As to TACGGGTAAC, the switch fluorescence ratio was found to be 1.02.

On to GTACGTGTTC, for which the switch fluorescence ratio was 0.975.

Regarding ATGGACGCGC, the switch fluorescence ratio is 1.03.

TTCTAGCAC: the switch fluorescence ratio was 1.1.

For the sequence GGGACTCGGC, the switch fluorescence ratio was 1.03.

With GTGCGTGGTG, the switch fluorescence ratio worked out at 1.01.

On to CGTATGCGGG, for which the switch fluorescence ratio is 0.988.

In the case of CGGGCCTAAG, the switch fluorescence ratio was 0.97.

For CTGGGAGGCC, the switch fluorescence ratio is 1.25.

Turning to GAATTCCGGT, the switch fluorescence ratio stood at 0.995.

As for CGATCGGGTG, the switch fluorescence ratio is 1.02.

Regarding GCGGTCCTGA, the switch fluorescence ratio came out at 0.993.

TTTAGGCGTC: the switch fluorescence ratio was found to be 0.925.

CTATTGCCAT: the switch fluorescence ratio is 0.983.

Take AAGCTTTTAC: the switch fluorescence ratio amounted to 2.27.

For the sequence TTGTCGGGGC, the switch fluorescence ratio came out at 1.

As for AGGATTAGAC, the switch fluorescence ratio stood at 0.985.

For ACATAGACAG, the switch fluorescence ratio worked out at 0.996.

CACATGTGAA: the switch fluorescence ratio worked out at 1.02.

Take AACCTTAATT: the switch fluorescence ratio stood at 1.07.

On to CTTTTAGATT, for which the switch fluorescence ratio was found to be 0.957.

Consider ATAACAGACC, for which the switch fluorescence ratio is 1.06.

Turning to GCTAGTAGAA, the switch fluorescence ratio turned out to be 1.01.

In the case of ACCCCGGCAT, the switch fluorescence ratio came to 1.19.

Turning to CTTTTAGAAG, the switch fluorescence ratio was found to be 0.978.

AGCTAGGAGT: the switch fluorescence ratio is 0.978.

AGGGAGGAGA: the switch fluorescence ratio was determined as 1.02.

As to GCCTCTCTAC, the switch fluorescence ratio was 1.33.

On to GTGTGAAGCT, for which the switch fluorescence ratio was determined as 1.03.

On to CGATTCCCGT, for which the switch fluorescence ratio was 1.04.

For AGGGCAGCTA, the switch fluorescence ratio worked out at 1.02.

Take ACAGTGGGGT: the switch fluorescence ratio is 1.02.

Take CGAGCTGGG: the switch fluorescence ratio came to 0.994.

TGAGCGTAGT: the switch fluorescence ratio amounted to 1.

Regarding CAGCAAAAGA, the switch fluorescence ratio came to 1.04.

As for CGCAGGCGAT, the switch fluorescence ratio is 1.05.

For the sequence CATTCCTGCT, the switch fluorescence ratio amounted to 1.04.

On to CGCTCCCAAC, for which the switch fluorescence ratio came out at 3.9.

Take TTTCCCCGCG: the switch fluorescence ratio turned out to be 1.18.

For the sequence TCCCTTCGGC, the switch fluorescence ratio turned out to be 0.959.

As to AATTAGTAAG, the switch fluorescence ratio came to 1.04.

Regarding AATTCCCGAC, the switch fluorescence ratio came out at 1.03.

AACGTGTCAT: the switch fluorescence ratio was determined as 1.03.

On to AGAAAGGGAT, for which the switch fluorescence ratio came out at 1.

As for GGGGTAGTGA, the switch fluorescence ratio was 0.992.

Turning to TCAGATAAAA, the switch fluorescence ratio was found to be 0.999.

As for TAACTTTAAT, the switch fluorescence ratio was determined as 0.976.

On to ATCTCTCGTA, for which the switch fluorescence ratio came to 1.

For the sequence CTGGGTCTCG, the switch fluorescence ratio amounted to 0.99.

With CTAATCGTCC, the switch fluorescence ratio came out at 1.14.

With TGACGCGAGG, the switch fluorescence ratio was found to be 1.18.

With CGACACTGCG, the switch fluorescence ratio came to 1.02.

GCGTCCCTTC: the switch fluorescence ratio was determined as 0.961.

Take TCTTTATAAG: the switch fluorescence ratio stood at 0.951.

TTATCTGCGG: the switch fluorescence ratio stood at 1.05.

For the sequence GCCCTCAGA, the switch fluorescence ratio was 1.03.

Regarding AAATAGTAGG, the switch fluorescence ratio was found to be 1.01.

In the case of GTTGAAGGCG, the switch fluorescence ratio amounted to 1.01.

As to GGGAAAGCGG, the switch fluorescence ratio amounted to 0.984.

In the case of CTACTCCCCT, the switch fluorescence ratio is 3.03.

Take AAAAAGGTGC: the switch fluorescence ratio was determined as 0.949.

CTTAACTCCC: the switch fluorescence ratio amounted to 1.6.

Turning to AAGTACGA, the switch fluorescence ratio is 1.23.

As to TGGGATTCCA, the switch fluorescence ratio turned out to be 0.958.

For TTGTCATAGC, the switch fluorescence ratio stood at 0.987.

With TGGGTATGAC, the switch fluorescence ratio turned out to be 0.988.

On to GGATATCGAC, for which the switch fluorescence ratio turned out to be 1.03.

For GGCGCCTGTT, the switch fluorescence ratio is 0.971.

Take AGTCGCGCGT: the switch fluorescence ratio stood at 1.05.

As for CTATGCCTCC, the switch fluorescence ratio was 1.1.

With TAACAAGCTA, the switch fluorescence ratio was found to be 1.01.

Turning to TTGTGTCGTC, the switch fluorescence ratio worked out at 0.988.

Regarding GTGGAACAAA, the switch fluorescence ratio worked out at 1.01.

With GATAGGGTCA, the switch fluorescence ratio worked out at 1.04.

TTTTGCGACT: the switch fluorescence ratio turned out to be 1.02.

Take TGGCGGTAGA: the switch fluorescence ratio is 1.01.

Take TTGAATACAA: the switch fluorescence ratio worked out at 1.01.

Turning to CTCCTTTTGT, the switch fluorescence ratio was 0.99.

On to TGACCTTAAG, for which the switch fluorescence ratio stood at 0.986.

For GAAGGTGGCC, the switch fluorescence ratio was found to be 0.996.

For the sequence CTTGGGGTTT, the switch fluorescence ratio was determined as 0.981.

With AATTCATTGC, the switch fluorescence ratio is 0.988.

For TGGTGAACAA, the switch fluorescence ratio worked out at 1.01.

In the case of TACATATGAG, the switch fluorescence ratio was 1.05.

In the case of GTTCAGGGGG, the switch fluorescence ratio is 1.14.

Consider GAGCGGCTG, for which the switch fluorescence ratio was 1.02.

Consider GCGGAGGCCG, for which the switch fluorescence ratio worked out at 0.886.

Consider CTGGCAAAC, for which the switch fluorescence ratio is 5.66.

With TGAGATAGCG, the switch fluorescence ratio was 0.969.

Consider TAAGACACCA, for which the switch fluorescence ratio worked out at 1.07.

For the sequence CACTTCTGTA, the switch fluorescence ratio was 1.03.

Turning to CCAGCCTAGA, the switch fluorescence ratio came out at 0.95.

On to GTCTAAGCC, for which the switch fluorescence ratio is 0.937.

AGTTTACCTG: the switch fluorescence ratio stood at 1.04.

With ATAACAACTT, the switch fluorescence ratio came to 0.995.

Regarding TGGACATAAA, the switch fluorescence ratio was 0.987.

Take GAGAGCGTTA: the switch fluorescence ratio was determined as 0.978.

For GCCCGGGTAA, the switch fluorescence ratio turned out to be 1.03.

In the case of TTACATTCCT, the switch fluorescence ratio is 1.41.

On to GGAGTGCATG, for which the switch fluorescence ratio was determined as 1.01.

Take ATAATATTCC: the switch fluorescence ratio was determined as 1.22.

Turning to ATGTTACATA, the switch fluorescence ratio came to 0.996.

Take AGCAGAGTTT: the switch fluorescence ratio is 1.02.

CCAATTGATC: the switch fluorescence ratio was found to be 1.01.

As to TTTAATCAGA, the switch fluorescence ratio amounted to 1.04.

Take GGTATATATC: the switch fluorescence ratio is 1.04.

With GCAATGGATT, the switch fluorescence ratio is 1.03.

With GAAGTGGGAA, the switch fluorescence ratio worked out at 1.2.

Consider GGCGTATATT, for which the switch fluorescence ratio was 1.

TTGTTACGTC: the switch fluorescence ratio came out at 1.01.
